# PubChem BioAssay AID2107 (National Center for Advancing Translational Sciences (NCATS), 2009)
# “And” between values parts separate entries of the source, which are not always exact repeats. Equal entries are not always repeated. About 20 (0.008%) of roughly 240,000 compounds were called active. The shares of active, inactive and inconclusive entries below differ from those in the screen. Calls follow the shape of the dose curve; as a rule, active = well fitted inhibition curve with a large enough effect; inconclusive = small, poorly fitted or top-dose-only effect, or effect the other way; inactive = flat fitted curve, though single readings scatter. Potencies of inconclusive entries are left out as doubtful fits.
# Biological target: Alpha-galactosidase A (Homo sapiens) (UniProt P06280)
# Chain of UniProt P06280 (P06280 whole entry, looked up): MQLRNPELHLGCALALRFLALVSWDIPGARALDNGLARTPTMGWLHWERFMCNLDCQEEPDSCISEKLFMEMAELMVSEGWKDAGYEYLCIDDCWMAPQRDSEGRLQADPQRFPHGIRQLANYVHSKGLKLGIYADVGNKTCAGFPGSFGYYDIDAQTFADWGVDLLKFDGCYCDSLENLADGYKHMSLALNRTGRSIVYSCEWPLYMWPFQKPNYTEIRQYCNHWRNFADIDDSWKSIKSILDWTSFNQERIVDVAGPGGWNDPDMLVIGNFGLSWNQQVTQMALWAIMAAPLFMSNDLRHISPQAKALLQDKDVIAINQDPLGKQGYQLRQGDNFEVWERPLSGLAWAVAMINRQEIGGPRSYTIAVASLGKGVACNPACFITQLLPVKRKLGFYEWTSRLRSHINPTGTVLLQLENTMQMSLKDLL
# Experiment: qHTS Assay for Inhibitors and Activators of Human alpha-Galactosidase From Spleen Homogenate;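 as to activity change, negative = inhibition: 0% = enzyme with vehicle and -100% = no enzyme basal signal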
# Details: 4MU-alpha-Gal fluorescence, 40 min; activity change, negative = inhibition: at 80 µM (top of the series)
# Outline: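 Human spleen homogenate (1 ug) as enzyme source, 4-methylumbelliferyl-alpha-D-galactopyranoside 1 mM final, citrate/phosphate pH 5.0 with 0.01% Tween-20. Compounds 40 min at 37C, NaOH/glycine stop; fluorescence Ex 365/Em 440, Hill-fit AC50.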
# Potency is read from the fitted curve at half-maximal effect; tags tell the direction and shape of the fitted curve.
Compound,Potency,"activity change, negative = inhibition"
Cn1c2c(c(=O)c3ccccc31)C[C@@H](O)C(C)(C)O2,inactive,
O=c1[nH]cnc2sc3c(c12)CCN(Cc1ccccc1)C3,"inconclusive [activator, partial curve]",
CCCN(CCC)CCCNC(=O)C1c2cc(OC)c(OC)cc2C(=O)N(C)C1c1cccs1 (stereo not drawn),"inconclusive [inhibitor, partial curve, poor fit]",
CCC(=O)N(Cc1cc2cc(OC)ccc2[nH]c1=O)c1cc(C)ccc1C,"inconclusive [activator, single point]",
COc1ccc2cc3cc(C(=O)NCc4cccs4)oc3nc2c1,"inconclusive [activator, partial curve]",
COC(=O)Cc1c(C)c2ccc(OC(=O)c3ccccc3)cc2oc1=O,"inconclusive [activator, partial curve]",
O=C(O)c1nccnc1C(=O)Nc1ccccc1-c1ccccc1,inactive,
O=[N+]([O-])c1ccc(/C=N/n2c(C3CCCCC3)n[nH]c2=S)cc1,inactive,
COc1cc(C2Nc3ccccc3C(=O)N2c2ccccc2)c(Br)cc1OCC(=O)O (stereo not drawn),"inconclusive [activator, single point]",
O=C(Oc1ccc2c3c(c(=O)oc2c1)CCC3)c1ccco1,"inconclusive [activator, partial curve]",
CC(=O)c1cc(C#N)c(SCc2ccccc2)nc1C,inactive,
OC1OC[C@H](O)[C@@H](O)[C@H]1O (stereo partly drawn),inactive,
Cc1oc(=O)c(NC(=O)c2ccc(Cl)cc2)cc1C(=O)c1ccccc1,inactive,
O=C(CC12CC3CC(CC(C3)C1)C2)NC(=S)N1CCCCC1,inactive,
Cn1cccc1C(=O)N1CCC2(CC1)CCN(c1ccncc1)CC2,inactive,
NCC1OC(O[C@@H]2[C@H](O)[C@@H](OC3C(O)C(N)CC(N)C3OC3OC(CO)C(O)C(O)C3N)O[C@@H]2CO)C(N)C(O)C1O (stereo partly drawn),inactive,
C=CC[n+]1ccc(/C=C2\C=Cc3cc(C)ccc3N2CC)c2ccccc21,inactive,
O=C(CSc1ncccc1-c1nc2ccccc2[nH]1)NCc1ccco1,"inconclusive [activator, partial curve]",
Cc1nccc(-c2sc(-c3cccs3)nc2C)n1,"inconclusive [activator, partial curve]",
CCN(CC)S(=O)(=O)c1ccc(C(=O)NCc2n[nH]c(=S)n2-c2ccc(Cl)c(Cl)c2)cc1,inactive,
CO[C@H]1COC(=O)C/C=C\[C@H](C)[C@@H](OC)COC(=O)[C@@H](C)NC(=O)C/C=C\[C@@H]1C,,inactive: 2.71% [at 17.5 µM]
CCc1cccc(CC)c1NC(=O)COc1ccccc1C(=O)c1cc(C#N)c(=O)n(C2CCCCC2)c1,"inconclusive [inhibitor, partial curve]",

Compound,Potency,"activity change, negative = inhibition"
Cc1ccsc1/C=N/Nc1nc2ccccc2s1,"inconclusive [inhibitor, single point]",
COc1ccccc1N1CCN(C/C=C/c2ccc(N(C)C)cc2)CC1,"inconclusive [activator, single point]",
COc1ccccc1NC(=O)CC1Nc2ccccc2NC1=O (stereo not drawn),"inconclusive [activator, single point]",
CC1CCN(CCCn2c(=S)[nH]c3c(sc4ccc([N+](=O)[O-])cc43)c2=O)CC1,"inconclusive [inhibitor, single point]",
O=C(COc1ccc(-c2ccccc2)cc1)N1CCN(S(=O)(=O)Cc2ccccc2)CC1,"inconclusive [inhibitor, partial curve, poor fit]",
CN(C)S(=O)(=O)c1cccc(NC(=O)c2cc(-c3cccs3)nc3ccccc23)c1,"inconclusive [activator, single point]",
O=C(CN1CCC(n2nnc3cc(F)ccc32)CC1)NC1CC1,"inconclusive [activator, single point]",
CCN1C(=O)[C@H]2[C@H]3[C@H](O)[C@H](O)C/C(=N/O[C@@H](C)c4cn([C@H](CO)Cc5ccccc5)nn4)[C@@H]3CC[C@@H]2C1=O,,inactive: 1.42% [at 17.5 µM] and inactive: -8.44% [at 17.5 µM]
COC(=O)c1ccccc1NC1CC(=O)N(c2c(C)cccc2C)C1=O (stereo not drawn),"inconclusive [activator, single point]",
Cn1c(=O)c2c(ncn2Cc2cccc(Cl)c2)n(C)c1=O,"inconclusive [inhibitor, single point]",
N#Cc1nc(COc2ccc(Br)cc2)oc1NCCN1CCOCC1,"inconclusive [activator, full curve, poor fit]",
O=C(NC(CO)(CO)CO)c1coc(=O)c(Br)c1,"inconclusive [activator, single point]",
CCOC(=O)C1CCN(C(=O)c2ccc(OCC)c(OCC)c2)CC1,"inconclusive [inhibitor, partial curve]",
CCC1c2ccc(C)n2CCN1C(=O)Nc1cc(Cl)ccc1OC (stereo not drawn),"inconclusive [inhibitor, single point]",
CCS(=O)(=O)Nc1ccccc1C(N)=O,"inconclusive [activator, single point]",
Nc1nc(N2CCCCC2)nc2ccccc12,"inconclusive [activator, partial curve]",
Nc1nn2cc(-c3ccc(Br)cc3)nc2c2ccccc12,"inconclusive [activator, single point]",
Nc1c(S(=O)(=O)c2ccccc2)c2nc3ccccc3nc2n1Cc1ccco1,"inconclusive [activator, partial curve]",
CCOC(=O)c1sc(NC(=O)Nc2ccc(Cl)cc2)cc1C,inactive,
O=C(NC1CCCCC1)c1cc2nc3c(c(C(F)(F)F)n2n1)CCCC3,inactive,
N#Cc1cc(-c2ccccc2)nc(Oc2ccccc2)n1,"inconclusive [activator, partial curve, poor fit]",
